Tested on: AKT phosphorylation in MIAPaCa-2, HCT-116, and MDA-MB-231 cells
Assay: AKT phosphorylation in EGF-stimulated mutant KRAS cells
Settings: EGF-stimulated MIAPaCa-2, HCT-116, MDA-MB-231

Compound: COc1cc(OC)c(/C=C/S(=O)(=O)Cc2ccc(OC)c(NCC(=O)O)c2)c(OC)c1 [RGS, rigosertib]
- AKT phosphorylation: reduction in AKT phosphorylation
